From the supplement of paper PMC10126150
Values marked as one replicate rest on one cluster of the flow cell; about a third of the high ones do not repeat.
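Also: ATP exposure 15 min at 22 °C before imaging.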

Each sequence was assayed on ATP (assay: switch fluorescence ratio, 500 uM ATP over buffer (Cy3 cluster intensity, sum of 5 cycles each) (fold (ratio)); higher = stronger signal-on switching upon ATP binding; sequences stand for … in TCGTCGGCAGCGTCAGATGTGTATAAGAGACAGTTTTTTTTTTTTTTTTTTTTTTTTT…TC). Conditions: aptamer strand: ATP DNA aptamer (quencher-CACCTGGGGGAGTATTGCGGAGGAAGG + anchor), 100 nM annealed; ATP concentration: 500 uM; one replicate.
How it was run: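 Imaging in selection buffer was followed by imaging after 15 min with 500 uM ATP at 22 °C, for Cy3-labelled switching-strand clusters annealed to 100 nM quencher-labelled ATP aptamer on a modified Illumina MiSeq flow-cell. Five of these buffer/ATP cycles ran, separated by NaOH stripping and re-annealing. The fluorescence ratio per cluster is summed target-cycle over summed buffer-cycle Cy3 intensity, averaged per switch-domain sequence; clusters outside 100-1000 RFU were removed.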
AGACTGAGCT showed a switch fluorescence ratio of 0.996. AGACTGCAGC gave a switch fluorescence ratio of 1.02. With AGACTGCCA the switch fluorescence ratio was 1.07. Sequence AGACTTAGGA has a switch fluorescence ratio of 1.03. AGACTTCTTT was tested, and the switch fluorescence ratio was 0.962. In the case of AGACTTGGTG, the switch fluorescence ratio is reported as 0.97. AGACTTTAAC showed a switch fluorescence ratio of 1.04. Sequence AGAGAAGGGG has a switch fluorescence ratio of 1.02. Work on AGAGAAGTGG yielded a switch fluorescence ratio of 0.958. AGAGACAAAG was tested, and the switch fluorescence ratio was 0.982. AGAGACCCTT showed a switch fluorescence ratio of 1.05. Sequence AGAGAGTCA has a switch fluorescence ratio of 0.962. AGAGATCAAT showed a switch fluorescence ratio of 1.01. AGAGATCGAC gave a switch fluorescence ratio of 1.01. AGAGATTGA gave a switch fluorescence ratio of 1.03. Sequence AGAGCATTGG has a switch fluorescence ratio of 1.08. AGAGCCCAGG showed a switch fluorescence ratio of 2.53. AGAGCGAGGG showed a switch fluorescence ratio of 0.953. Sequence AGAGCGGACA has a switch fluorescence ratio of 1.02. In the case of AGAGCGGAGT, the switch fluorescence ratio is reported as 0.988. AGAGCTAGT was tested, and the switch fluorescence ratio was 1.01. Sequence AGAGCTTAGC has a switch fluorescence ratio of 0.983. Sequence AGAGCTTTTA has a switch fluorescence ratio of 1.02. With AGAGGACGGG the switch fluorescence ratio was 0.997. AGAGGATATG showed a switch fluorescence ratio of 0.987. Sequence AGAGGCAGGT has a switch fluorescence ratio of 1.02. Work on AGAGGGTTAG yielded a switch fluorescence ratio of 0.988. AGAGGTTCTT gave a switch fluorescence ratio of 0.999. For AGAGTACAAA, the switch fluorescence ratio was 0.991. AGAGTACCTT gave a switch fluorescence ratio of 1.1. For AGAGTCCGCC, the switch fluorescence ratio was 1.19. For AGAGTGGCGT, the switch fluorescence ratio was 0.952. AGAGTTCAGC showed a switch fluorescence ratio of 0.956. For AGAGTTTACA, the switch fluorescence ratio was 1.01. In the case of AGAGTTTCA, the switch fluorescence ratio is reported as 0.989. In the case of AGAGTTTTAC, the switch fluorescence ratio is reported as 1.06. With AGATAAA the switch fluorescence ratio was 0.988. AGATAATCGT gave a switch fluorescence ratio of 1.02. Sequence AGATACCGGT has a switch fluorescence ratio of 0.97. Work on AGATACTACC yielded a switch fluorescence ratio of 1.58. With AGATAGAAAG the switch fluorescence ratio was 1. In the case of AGATAGGTAT, the switch fluorescence ratio is reported as 0.963. With AGATAGTAGT the switch fluorescence ratio was 1.01. For AGATATATTA, the switch fluorescence ratio was 1.02. Sequence AGATATCTGC has a switch fluorescence ratio of 0.973. With AGATCATAAA the switch fluorescence ratio was 1.02. AGATCCCATG showed a switch fluorescence ratio of 0.955. AGATCGGTG showed a switch fluorescence ratio of 0.985. AGATCTCGAC showed a switch fluorescence ratio of 0.985. Sequence AGATCTCTAC has a switch fluorescence ratio of 0.957. With AGATGAGACC the switch fluorescence ratio was 0.989. AGATGCCCAA showed a switch fluorescence ratio of 0.991. Work on AGATGGCCAT yielded a switch fluorescence ratio of 0.998. Sequence AGATGGGGGC has a switch fluorescence ratio of 1.02. AGATGGTCTC was tested, and the switch fluorescence ratio was 0.975. For AGATGGTGT, the switch fluorescence ratio was 1.01. Sequence AGATGGTGTA has a switch fluorescence ratio of 0.967. For AGATGTTCCA, the switch fluorescence ratio was 0.998. Sequence AGATTAAACG has a switch fluorescence ratio of 0.999. AGATTAAAG was tested, and the switch fluorescence ratio was 0.978. Work on AGATTACTTA yielded a switch fluorescence ratio of 1.01. AGATTCGTGT gave a switch fluorescence ratio of 1.01. In the case of AGATTGTAGT, the switch fluorescence ratio is reported as 0.99. AGATTGTTGT gave a switch fluorescence ratio of 0.973. AGATTTCTT showed a switch fluorescence ratio of 0.97. AGATTTGTAT showed a switch fluorescence ratio of 0.94. In the case of AGATTTGTCT, the switch fluorescence ratio is reported as 0.968. With AGCAAGTGGT the switch fluorescence ratio was 1.02. Work on AGCAATAAAA yielded a switch fluorescence ratio of 1.05. AGCAATCGTC was tested, and the switch fluorescence ratio was 2.31. AGCACAAGGA showed a switch fluorescence ratio of 1. AGCACAGAAA showed a switch fluorescence ratio of 1.01. Work on AGCACGCCTG yielded a switch fluorescence ratio of 0.987. AGCACGGGGC was tested, and the switch fluorescence ratio was 1.05. Work on AGCACGGTCA yielded a switch fluorescence ratio of 1.02. For AGCAGCAGGT, the switch fluorescence ratio was 1.03. With AGCAGCATCC the switch fluorescence ratio was 1.35. For AGCAGGGTTC, the switch fluorescence ratio was 1.02. In the case of AGCAGGTGCT, the switch fluorescence ratio is reported as 1.16. Sequence AGCAGTAGCA has a switch fluorescence ratio of 1.03. In the case of AGCATAGAA, the switch fluorescence ratio is reported as 1.07. In the case of AGCATAGGAA, the switch fluorescence ratio is reported as 1.04. Sequence AGCATAGGGC has a switch fluorescence ratio of 1.07. With AGCATATTGT the switch fluorescence ratio was 0.973. Sequence AGCATCACGA has a switch fluorescence ratio of 1.13.
